Measured values reported in PubChem BioAssay AID1347417 (National Center for Advancing Translational Sciences (NCATS), 2020).
Screen size: about 120,000 compounds; about 5,300 (4.4%) were called active. The inconclusive results got no clear call from the source; some entries with a clear call stand among them for comparison. Calls come from the whole dose curve; as a rule, active = well fitted inhibition curve with a large enough effect; inconclusive = small, poorly fitted or top-dose-only effect; inactive = no such curve, though single readings can be large or run the other way. Potencies of inconclusive entries are doubtful fits and often do not repeat.

Experiment: qHTS Primary assay for Inhibitors of Plasmodium falciparum Dd2 growth in vitro; note: nearly all actives have a fitted effect of over 65% in size
Conditions: P. falciparum Dd2 growth, SYBR Green, 72 h; series mostly up to 28.9 µM
Outline: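 Infected erythrocytes (Dd2, 0.3% parasitemia, 2.5% hematocrit final) are added to compound in RPMI-1640/Albumax II medium, grown 72 h at 37C in low oxygen, then lysed with saponin/Triton-X containing SYBR Green and read by fluorescence.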
Potency is the fitted concentration of half-maximal effect; tags give direction and shape of the fitted curve.

| SMILES | Potency |
| --- | --- |
| CCC1Oc2ccc(NC(=O)Cc3ccc(F)cc3)cc2CN(Cc2ccc(OC)cc2)C1=O (centres undefined) | inactive |
| CCOC(=O)c1cnc2ccc(OC)cc2c1NCCc1ccc(OC)c(OC)c1 | active: 1 µM |
| Cc1ccc(C(=O)N2CCC3(CC2)CC(N(Cc2ccc(F)cc2)C2CC2)CCO3)cc1 (centres undefined) | inconclusive: 3.98 µM [inhibitor, single point] |
| CC(=O)N1C[C@@H]2CCCN3CCC[C@@H]([C@H]23)[C@H]1CCCC(=O)Nc1ccccc1 | inconclusive: 0.0794 µM [inhibitor, full curve, poor fit] |
| CC(C)[C@@H](N)C(=O)N1CCC(Oc2ccccc2F)(C(=O)O)CC1 | inactive |
| Cc1nnnn1CCCN1C[C@H](NC(=O)CC2CCC2)[C@@H](C(C)C)C1 | inconclusive: 12.6 µM [inhibitor, single point] |
| CCCc1ccc(OC(C)C(=O)Nc2sc3c(c2C(=O)OC)CCCCC3)cc1 (centres undefined) | inconclusive: 10 µM [inhibitor, single point] |
| CC1CCN(S(=O)(=O)c2ccc3c(c2)oc(=O)n3CC(=O)NC(C)c2ccccc2)CC1 (centres undefined) | active: 11.2 µM |
| c1cc(CN2CCCCCC2)cc(-c2nc(C3CCOC3)no2)c1 (centres undefined) | active: 8.91 µM |
| COc1ccc(-c2nc(C3CC3)nc3c2CCN(C(=O)c2ccc(C)cc2)CC3)cc1 | inconclusive: 12.6 µM [inhibitor, partial curve, poor fit] |
| O=C1CCCCC(Cc2ccccc2)(C(=O)Nc2ccc(F)cc2)N1 (centres undefined) | inconclusive: 12.6 µM [inhibitor, single point] |
| CCCSc1ncc(Cl)c(C(=O)N(Cc2ccc(N(C)C)cc2)C2CCS(=O)(=O)C2)n1 (centres undefined) | inconclusive: 17.8 µM [inhibitor, single point] |
| COc1cccc(N2C(=O)NC(=NC3CCCCC3)C23CCCN(Cc2cccnc2)C3)c1 (centres undefined) | inconclusive: 10 µM [inhibitor, single point] |
| O=C(c1ccccc1F)N1CCc2nc(-c3ccc(Cl)cc3)nc(-c3ccccc3)c2C1 | inactive |
| Cc1nc2ccccc2n1CCc1nc2c3ccccc3nc(SCC(=O)Nc3ccc(Br)cc3F)n2n1 | inactive |
| CC(C)C12CN3CC(C(C)C)(CN(C1)C3c1ccc(Cl)cc1)C2=O (centres undefined) | inactive |
| CN1CCN(c2oc(-c3ccc(COc4ccc(Cl)cc4)o3)nc2C#N)CC1 | inconclusive: 17.8 µM [inhibitor, single point] |
| N#Cc1nc(-c2ccc(COc3ccccc3)o2)oc1NCc1ccccc1 | inconclusive: 17.8 µM [inhibitor, single point] |
| CCC(O)c1cc2c(cc1NC(=O)c1cccc(Br)c1)OCCO2 (centres undefined) | active: 11.2 µM |
